The list shows a part of the results. Cut-off read from the data, not from the text of the source: active = 3.2 or more and inactive = the rest. Most of these values are background signal.
Experiments:
Assay in all cases: enrichment score (SH2-bound / input frequency) (ratio); bacterial display of known human phosphotyrosine sites (pTyr-Var adds point mutants) read by sequencing; higher = stronger binding; tyrosines were phosphorylated by kinases first
Conditions in all cases: peptide library: pTyr-Var
SHP2 C-SH2 domain E139D = target: SHP2 C-SH2 domain E139D
[1] = target: SHP2 C-SH2 domain wild-type
SHP2 N-SH2 domain L43F = target: SHP2 N-SH2 domain L43F
SHP2 N-SH2 domain T42A = target: SHP2 N-SH2 domain T42A
SHP2 N-SH2 domain T52S = target: SHP2 N-SH2 domain T52S
[2] = target: SHP2 N-SH2 domain wild-type

Measured: enrichment score
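Note: displayed peptides selected on beads carrying the immobilized SH2 domain, with library peptides lacking any tyrosine serving as negative controls.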

SADIAYNFRHG [PAH_Y166_F161S_YF]
inactive: SHP2 C-SH2 domain E139D 0.841 | [1] 0.733 | SHP2 N-SH2 domain L43F 0.843 | SHP2 N-SH2 domain T42A 0.704 | SHP2 N-SH2 domain T52S 0.879 | [2] 0.779

SKGYAYVHFDS [PABPC5_Y149]
active: SHP2 C-SH2 domain E139D 4.06 | [1] 6.17 | SHP2 N-SH2 domain L43F 6.01 | SHP2 N-SH2 domain T42A 10.1 | SHP2 N-SH2 domain T52S 7.16
inactive: [2] 2.59

FADIAYSYRHG [PAH_Y166_N167S]
inactive: SHP2 C-SH2 domain E139D 0.975 | [1] 0.85 | SHP2 N-SH2 domain L43F 0.819 | SHP2 N-SH2 domain T42A 0.732 | SHP2 N-SH2 domain T52S 1.07 | [2] 0.843

PGVDIYVSPNM [PADI3_Y51_I52V]
inactive: SHP2 C-SH2 domain E139D 0.928 | [1] 0.918 | SHP2 N-SH2 domain L43F 1.11 | SHP2 N-SH2 domain T42A 0.855 | SHP2 N-SH2 domain T52S 0.842 | [2] 1.54

SILAVYSKDIF [PANK2_Y400_N404I_YF]
inactive: SHP2 C-SH2 domain E139D 1.35 | [1] 1.13 | SHP2 N-SH2 domain L43F 1.46 | SHP2 N-SH2 domain T42A 0.902 | SHP2 N-SH2 domain T52S 1.2 | [2] 1.03

FSKDIYKRVTG [PANK2_Y405_N404I_YF]
inactive: SHP2 C-SH2 domain E139D 0.504 | [1] 0.391 | SHP2 N-SH2 domain L43F 0.436 | SHP2 N-SH2 domain T42A 0.358 | SHP2 N-SH2 domain T52S 0.439 | [2] 0.442

GYEEAYSVFKK [PAFAH1B1_Y28]
inactive: SHP2 C-SH2 domain E139D 0.794 | [1] 0.806 | SHP2 N-SH2 domain L43F 0.751 | SHP2 N-SH2 domain T42A 0.664 | SHP2 N-SH2 domain T52S 1.04 | [2] 1.09

LVGTPYWMAPE [PAK5_Y608]
inactive: SHP2 C-SH2 domain E139D 1.14 | [1] 1.44 | SHP2 N-SH2 domain L43F 0.939 | SHP2 N-SH2 domain T42A 1.08 | SHP2 N-SH2 domain T52S 1.08 | [2] 1.29

WDSSGYWTPEE [PAPPA2_Y908_C903W]
inactive: SHP2 C-SH2 domain E139D 0.849 | [1] 1.14 | SHP2 N-SH2 domain L43F 0.892 | SHP2 N-SH2 domain T42A 1.15 | SHP2 N-SH2 domain T52S 0.708 | [2] 1.12

KKDGPYDVVVL [PARK7_Y67_E64D]
inactive: SHP2 C-SH2 domain E139D 0.703 | [1] 0.668 | SHP2 N-SH2 domain L43F 0.723 | SHP2 N-SH2 domain T42A 0.613 | SHP2 N-SH2 domain T52S 0.611 | [2] 0.927

EYFENYIEELK [PARP4_Y218]
inactive: SHP2 C-SH2 domain E139D 0.907 | [1] 1.13 | SHP2 N-SH2 domain L43F 1.25 | SHP2 N-SH2 domain T42A 0.961 | SHP2 N-SH2 domain T52S 0.926 | [2] 1.02

GLETSYIEDNC [PAH_Y24_Q20L]
inactive: SHP2 C-SH2 domain E139D 0.491 | [1] 0.493 | SHP2 N-SH2 domain L43F 0.637 | SHP2 N-SH2 domain T42A 0.514 | SHP2 N-SH2 domain T52S 0.515 | [2] 0.467

HSYNSYTYPRL [PAK5_Y316]
inactive: SHP2 C-SH2 domain E139D 1.26 | [1] 0.914 | SHP2 N-SH2 domain L43F 1.01 | SHP2 N-SH2 domain T42A 0.868 | SHP2 N-SH2 domain T52S 1.12 | [2] 1.02

GQDLFYEDEDL [PACS1_Y303]
inactive: SHP2 C-SH2 domain E139D 0.694 | [1] 0.913 | SHP2 N-SH2 domain L43F 0.818 | SHP2 N-SH2 domain T42A 0.832 | SHP2 N-SH2 domain T52S 0.929 | [2] 0.902

ELTAKYLNFFR [P3H4_Y181_Q186R_YF]
inactive: SHP2 C-SH2 domain E139D 1.08 | [1] 1.38 | SHP2 N-SH2 domain L43F 1.24 | SHP2 N-SH2 domain T42A 1.52 | SHP2 N-SH2 domain T52S 1.3 | [2] 1.04

HKDNNYISMWF [PAPOLG_Y432_V433I]
inactive: SHP2 C-SH2 domain E139D 1.15 | [1] 0.739 | SHP2 N-SH2 domain L43F 1.31 | SHP2 N-SH2 domain T42A 1.91 | SHP2 N-SH2 domain T52S 2.03 | [2] 1.03

SADIAYNYRHG [PAH_Y166_F161S]
inactive: SHP2 C-SH2 domain E139D 0.871 | [1] 0.659 | SHP2 N-SH2 domain L43F 0.715 | SHP2 N-SH2 domain T42A 0.617 | SHP2 N-SH2 domain T52S 0.671 | [2] 0.8

YSKDIYKRVTG [PANK2_Y405_N404I]
inactive: SHP2 C-SH2 domain E139D 0.46 | [1] 0.388 | SHP2 N-SH2 domain L43F 0.428 | SHP2 N-SH2 domain T42A 0.403 | SHP2 N-SH2 domain T52S 0.406 | [2] 0.455

FADIAYNFRRG [PAH_Y166_H170R_YF]
inactive: SHP2 C-SH2 domain E139D 0.637 | [1] 0.548 | SHP2 N-SH2 domain L43F 0.511 | SHP2 N-SH2 domain T42A 0.525 | SHP2 N-SH2 domain T52S 0.643 | [2] 0.621

HGEAYYSEVKP [PAK5_Y182]
inactive: SHP2 C-SH2 domain E139D 0.599 | [1] 0.681 | SHP2 N-SH2 domain L43F 0.397 | SHP2 N-SH2 domain T42A 0.541 | SHP2 N-SH2 domain T52S 1.19 | [2] 0.961

FADIAYNFHHG [PAH_Y166_R169H_YF]
inactive: SHP2 C-SH2 domain E139D 0.886 | [1] 0.745 | SHP2 N-SH2 domain L43F 0.857 | SHP2 N-SH2 domain T42A 0.942 | SHP2 N-SH2 domain T52S 0.97 | [2] 0.993

NGSKGYAFVHF [PABPC5_Y147_YF]
active: [1] 4.75 | SHP2 N-SH2 domain L43F 4.35 | SHP2 N-SH2 domain T42A 8.08 | SHP2 N-SH2 domain T52S 5.21
inactive: SHP2 C-SH2 domain E139D 2.84 | [2] 1.78

EYYENYIEELK [PARP4_Y218_F215Y]
inactive: SHP2 C-SH2 domain E139D 1.68 | [1] 1.43 | SHP2 N-SH2 domain L43F 1.13 | SHP2 N-SH2 domain T42A 1.02 | SHP2 N-SH2 domain T52S 1.22 | [2] 1.29

FADTAYNFRHG [PAH_Y166_I164T_YF]
inactive: SHP2 C-SH2 domain E139D 1.03 | [1] 0.759 | SHP2 N-SH2 domain L43F 0.791 | SHP2 N-SH2 domain T42A 0.658 | SHP2 N-SH2 domain T52S 0.777 | [2] 0.903

GYEEAYSVSKK [PAFAH1B1_Y28_F31S]
inactive: SHP2 C-SH2 domain E139D 0.635 | [1] 0.593 | SHP2 N-SH2 domain L43F 0.655 | SHP2 N-SH2 domain T42A 0.635 | SHP2 N-SH2 domain T52S 0.545 | [2] 0.679

GFEEAYSVSKK [PAFAH1B1_Y28_F31S_YF]
inactive: SHP2 C-SH2 domain E139D 0.613 | [1] 0.562 | SHP2 N-SH2 domain L43F 0.662 | SHP2 N-SH2 domain T42A 0.543 | SHP2 N-SH2 domain T52S 0.531 | [2] 0.545

CDSSGYWTPEE [PAPPA2_Y908]
inactive: SHP2 C-SH2 domain E139D 0.683 | [1] 0.765 | SHP2 N-SH2 domain L43F 0.601 | SHP2 N-SH2 domain T42A 0.674 | SHP2 N-SH2 domain T52S 0.628 | [2] 0.6

FHLLPYTIRAM [PARS2_Y93_V95I_YF]
inactive: SHP2 C-SH2 domain E139D 2.67 | [1] 2.59 | SHP2 N-SH2 domain L43F 2.83 | SHP2 N-SH2 domain T42A 2.57 | SHP2 N-SH2 domain T52S 2.98 | [2] 2.37

FADIAYNYRHR [PAH_Y166_G171R]
inactive: SHP2 C-SH2 domain E139D 0.649 | [1] 0.607 | SHP2 N-SH2 domain L43F 0.584 | SHP2 N-SH2 domain T42A 0.488 | SHP2 N-SH2 domain T52S 0.564 | [2] 0.798

SILTVYSKDNY [PANK2_Y400_A398T]
inactive: SHP2 C-SH2 domain E139D 1.05 | [1] 0.873 | SHP2 N-SH2 domain L43F 1.05 | SHP2 N-SH2 domain T42A 1 | SHP2 N-SH2 domain T52S 0.774 | [2] 0.981

NGSKAYAFVHF [PABPC5_Y147_G146A_YF]
active: SHP2 C-SH2 domain E139D 3.24 | [1] 4.58 | SHP2 N-SH2 domain L43F 3.61 | SHP2 N-SH2 domain T42A 5.91 | SHP2 N-SH2 domain T52S 4.31
inactive: [2] 1.81

QLATEYVFSDF [PANX1_Y10]
inactive: SHP2 C-SH2 domain E139D 1.16 | [1] 1.04 | SHP2 N-SH2 domain L43F 1.13 | SHP2 N-SH2 domain T42A 1.01 | SHP2 N-SH2 domain T52S 1.08 | [2] 1.11

HLTNQFMQRVA [PABPC4_Y382_Y382F]
inactive: SHP2 C-SH2 domain E139D 1.29 | [1] 1.06 | SHP2 N-SH2 domain L43F 1.14 | SHP2 N-SH2 domain T42A 1.08 | SHP2 N-SH2 domain T52S 1.09 | [2] 1.1

GQDLLYEDEDL [PACS1_Y303_F302L]
inactive: SHP2 C-SH2 domain E139D 0.703 | [1] 0.73 | SHP2 N-SH2 domain L43F 0.763 | SHP2 N-SH2 domain T42A 0.576 | SHP2 N-SH2 domain T52S 0.553 | [2] 0.917

GFEEAYSVFKK [PAFAH1B1_Y28_YF]
inactive: SHP2 C-SH2 domain E139D 0.641 | [1] 0.537 | SHP2 N-SH2 domain L43F 0.622 | SHP2 N-SH2 domain T42A 0.582 | SHP2 N-SH2 domain T52S 0.667 | [2] 0.828

VPVDGYISGLL [PAK6_Y81_M76V]
inactive: SHP2 C-SH2 domain E139D 0.928 | [1] 1 | SHP2 N-SH2 domain L43F 0.928 | SHP2 N-SH2 domain T42A 0.709 | SHP2 N-SH2 domain T52S 0.755 | [2] 0.927

FADIAYNYRHG [PAH_Y166]
inactive: SHP2 C-SH2 domain E139D 1.02 | [1] 1.2 | SHP2 N-SH2 domain L43F 1.08 | SHP2 N-SH2 domain T42A 0.814 | SHP2 N-SH2 domain T52S 0.928 | [2] 1.24

From the supplement of paper PMC10369915
